Source: paper PMC4336329 (PLoS ONE, 2015)
Among all 310,000 compounds or so, about 2,200 (0.71%) showed an effect of 50% or more. The effect is printed as a negative number. The list shows a part of the results.

Each molecule was assayed against human ether-à-go-go-related gene (hERG) potassium channel (human, UniProt Q12809) (assay: primary screen, population patch clamp on CHO cells stably expressing hERG).
Sequence of human ether-à-go-go-related gene (hERG) potassium channel (Q12809 whole entry, looked up): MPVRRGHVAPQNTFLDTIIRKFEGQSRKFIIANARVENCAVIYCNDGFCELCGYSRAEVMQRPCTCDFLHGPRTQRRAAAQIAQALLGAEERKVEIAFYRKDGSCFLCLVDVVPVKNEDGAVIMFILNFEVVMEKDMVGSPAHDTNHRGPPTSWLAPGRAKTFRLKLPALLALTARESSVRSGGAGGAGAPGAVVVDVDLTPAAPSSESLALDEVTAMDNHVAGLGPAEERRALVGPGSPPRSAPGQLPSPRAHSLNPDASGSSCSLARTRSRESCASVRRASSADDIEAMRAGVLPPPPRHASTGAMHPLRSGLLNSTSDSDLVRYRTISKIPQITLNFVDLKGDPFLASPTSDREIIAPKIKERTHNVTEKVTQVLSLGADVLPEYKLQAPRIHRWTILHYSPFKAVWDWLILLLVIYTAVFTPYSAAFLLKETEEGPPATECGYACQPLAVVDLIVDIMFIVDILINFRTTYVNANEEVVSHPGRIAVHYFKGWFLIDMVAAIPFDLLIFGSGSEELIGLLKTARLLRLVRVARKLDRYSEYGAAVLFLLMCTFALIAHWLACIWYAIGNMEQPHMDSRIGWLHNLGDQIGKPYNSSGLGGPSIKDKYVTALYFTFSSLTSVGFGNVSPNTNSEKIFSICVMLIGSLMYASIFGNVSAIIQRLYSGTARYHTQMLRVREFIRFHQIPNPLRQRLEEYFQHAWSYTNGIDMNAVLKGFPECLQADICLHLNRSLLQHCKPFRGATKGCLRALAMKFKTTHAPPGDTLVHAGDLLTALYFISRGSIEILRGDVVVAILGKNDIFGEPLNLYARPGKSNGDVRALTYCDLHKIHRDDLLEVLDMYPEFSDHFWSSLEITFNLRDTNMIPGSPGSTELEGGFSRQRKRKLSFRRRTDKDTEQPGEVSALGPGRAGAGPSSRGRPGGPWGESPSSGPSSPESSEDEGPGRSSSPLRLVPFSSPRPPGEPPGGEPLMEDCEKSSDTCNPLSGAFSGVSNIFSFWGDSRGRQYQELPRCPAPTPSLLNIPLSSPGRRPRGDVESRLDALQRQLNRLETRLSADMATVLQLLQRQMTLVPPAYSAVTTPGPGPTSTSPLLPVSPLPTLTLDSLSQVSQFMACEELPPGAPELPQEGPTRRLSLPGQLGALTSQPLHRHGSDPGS

| SMILES | hERG current change (%, negative = inhibition) at 1uM |
| --- | --- |
| Cc1ccc(-c2nnn(CC(=O)NCCc3ccc4c(c3)OCO4)n2)cc1 | 14.9% |
| CCC(C(=O)NC1CCCCC1)n1nc(C)c2c(C)n(-c3ccccc3)nc2c1=O (stereo not shown) | 15.2% |
| COc1ccc(C(=O)NC(=S)NCc2ccco2)cc1 | 15% |
| COc1cc(/C=C2\SC(N)=NC2=O)ccc1OCC(=O)Nc1ccccc1C | 9.43% |
| COc1ccc(C2=NN(C(=S)Nc3ccccc3)C(c3ccccc3)C2)cc1 (stereo not shown) | 5.13% |
| CCOC(=O)CC1(NC(=O)C2CCC(=O)N(CCc3ccccc3)C2)CCCCC1 (stereo not shown) | 29.2% |
| Cc1cc(N2CCN(C(=O)c3ccco3)CC2)c2ccccc2n1 | -68.6% |
| COc1cc(C(=O)Nc2nnc(C(C)(C)C)s2)c([N+](=O)[O-])cc1OC | 14.2% |
| O=c1sc2ccccc2c(=O)n1Cc1ccccc1F | 13.3% |
| C/C(=N/NC(=O)CN1CCN(Cc2ccccc2)CC1)c1ccc([N+](=O)[O-])cc1 | -72.9% |
| CN(Cc1ccccc1)C(=O)C1CCCN(c2ncnc3c2nc2n3CCCCC2)C1 (stereo not shown) | -10.7% |
| Cc1nn(CC(=O)N2CCc3ccccc3C2)c(C)c1[N+](=O)[O-] | 20.2% |
| O=c1oc2ccc([N+](=O)[O-])cc2c(N2CCOCC2)c1[N+](=O)[O-] | 16.5% |
| CC(C)OCCCNC(=O)c1ccccc1Oc1ccccc1 | -7.09% |
| Cc1ccc(OCc2cc(C(=O)N3CCN(c4ccccc4)CC3)no2)cc1C | 9.56% |
| CCC(C)n1c(O)c(C=NCCN2CCOCC2)c(=O)[nH]c1=S (stereo not shown) | 11.7% |
| Cc1ccc(C)c(C(=O)CCC(=O)Nc2ccc(F)cc2)c1 | 17.2% |
| O=C(O)CNC(=O)/C(=C\c1cccc([N+](=O)[O-])c1)NC(=O)c1ccco1 | 14.8% |
| CC1CCCC(C)N1CCCNC(=O)c1cc2c(s1)-c1ccccc1OC2 (stereo not shown) | -25.2% |
| CC1CCCC(NC(=O)C2CCC(CNc3c(N4CCCC4)c(=O)c3=O)CC2)C1C (stereo not shown) | 9.03% |
| O=C(CSc1nnnn1-c1ccc(Cl)c(C(=O)O)c1)NC(c1ccccc1)c1ccccc1 | 11.3% |
| Cc1ccc(/C=N/NC(=O)c2nnn(-c3nonc3N)c2CSc2ccccc2)s1 | 11.4% |

| SMILES | hERG current change (%, negative = inhibition) at 1uM |
| --- | --- |
| CC(=O)N/C(=C\c1ccccc1)C(=O)OC(C)C(=O)N(C)c1ccccc1 (stereo not shown) | 5.31% |
| COC(=O)C1=C(C)N(c2ccccc2)/C(=C/c2ccco2)C1=O | 31.1% |
| Cc1ccccc1NC(=O)c1cc(-c2ccccc2)n(CCCN2CCOCC2)c1C | -3.58% |
| COc1cc(/C=N/N(C)c2ccccc2)ccc1O | 13.6% |
| Cc1ccc(OCCn2cc(/C(N)=N/O)c3ccccc32)cc1C | 2.47% |
| CCOc1cccc2cc(C(=O)Nc3nccs3)c(=O)oc12 | -6.38% |
| Nc1nc(-c2cccs2)c(-c2cccs2)s1 | 11.2% |
| COc1ccc(C(C)=O)cc1Cn1c(=O)cc(C)[nH]c1=O | 16.1% |
| COc1ccccc1N1C(=NC(=O)C(C)Oc2ccccc2)SC2CS(=O)(=O)CC21 (stereo not shown) | 6.42% |
| CCOc1cc(C(=O)Nc2ncn[nH]2)cc(OCC)c1OCC | 0.901% |
| Cc1ccc(NC2=NC3(CCCC3)N=C(N)N2)c(C)c1 | 17.8% |
| CCOc1ccccc1NC(=S)N1CCN(c2ccc(O)cc2)CC1 | 10.3% |
| CCCOc1ccc(-c2nn(-c3ccccc3)cc2/C=C2\SC(=S)N(C3CCS(=O)(=O)C3)C2=O)cc1 (stereo not shown) | 13.3% |
| N#CCCN(C(=O)COc1ccc(Br)cc1F)c1ccc(F)cc1 | -20.1% |
| O=C1NC(=O)C(=C/C=C/c2coc3ccc(Br)cc3c2=O)C(=O)N1 | 6.81% |
| COCCNC(=O)Cn1nc(C)c([N+](=O)[O-])c1C | 1.12% |
| COc1cc(OC)cc(C(=O)NNC(=S)NC2CC2)c1 | 16.4% |
| OCC1CO1 (stereo not shown) | 12.7% |
| COc1cc(OC)cc(C(=O)N[C@H](C(=O)NCc2cccs2)C(C)C)c1 | 3.82% |
| OCCN(CCO)CC(O)COc1ccc(Br)cc1 (stereo not shown) | 5.84% |
| COc1ccc(-c2nc(SCc3ccc(C#N)cc3)[nH]c(=O)c2C#N)cc1 | 15.1% |
| COc1ccc(NC(=O)c2cc(-c3ccc(C)c(C)c3O)n[nH]2)cc1Cl | 22.1% |

| SMILES | hERG current change (%, negative = inhibition) at 1uM |
| --- | --- |
| CC(C)CCN(CC(=O)NCc1ccc(F)cc1)S(=O)(=O)c1ccccc1F | 3.06% |
| O=C(CCC(=O)c1cccs1)OCC(=O)N1CCN(S(=O)(=O)c2ccccc2)CC1 | 3.61% |
| CCn1c(=O)cc(SCC(=O)Nc2cc(OC)c(OC)c(OC)c2)c2ccccc21 | 1.27% |
| O=C(NCCc1c[nH]c2ccccc12)C1CCN(c2nnc(N3CCCC3=O)s2)CC1 | 13% |
| CC(=O)Nc1ccc(S(=O)(=O)NCc2csc(C)n2)cc1 | 6.48% |
| Cc1[nH]n(C(N)=S)c(=O)c1N=Nc1cccc(Cl)c1 | 11.7% |
| CCn1c(C)nc2cc(C#N)ccc21 | 15.4% |
| CCOc1ccc(N2C(=O)CC(NCCc3ccc(S(N)(=O)=O)cc3)C2=O)cc1 (stereo not shown) | 11.9% |
| O=C(Cc1cccs1)Nc1nc2ccccc2s1 | 8.59% |
| O=C(O)c1ccc(N(c2ccccc2)c2ccccc2)cc1 | 6.53% |
| COc1ccc(C2Nc3ccccc3NC3=C2C(=O)CC(C)(C)C3)cc1OC (stereo not shown) | 10.3% |
| NC(=O)C1(c2ccccc2)CCC(=O)N1c1ccccc1 (stereo not shown) | 14.8% |
| O=C(COC(=O)c1cccnc1Nc1cccc(C(F)(F)F)c1)NC1CCS(=O)(=O)C1 (stereo not shown) | 9.44% |
| CC(NC(=O)Cn1cnc2c1c(=O)n(C)c(=O)n2C)c1ccccc1 (stereo not shown) | 6.17% |
| CCCCn1c(N)c(N(CC)C(=O)c2ccc(N(C)S(=O)(=O)c3ccc(C)cc3)cc2)c(=O)[nH]c1=O | 3.24% |
| CN(C)c1ccc(/C=C/c2cccc[n+]2[O-])cc1 | 16% |
| COc1ccc(NC(=O)c2scc(S(=O)(=O)C(C)C)c2N)cc1 | 13.3% |
| C#CCOCCOCCOCCNc1nc(N2CCN(C(=O)Cn3cc(CCCC[NH3+])nn3)CC2)nc(N2CCN(C(=O)[C@H]([C@@H](C)CC)n3cc(CCCC[NH3+])nn3)CC2)n1.[Cl-] | 9.19% |
| Cc1ccc(NC(=O)c2ccc(OCC3CCCO3)cc2)cc1 (stereo not shown) | -4.17% |
| Cc1ccc(-n2c(SCC(=O)Nc3cccc(S(=O)(=O)NC4=NCCCCC4)c3)nc3ccccc3c2=O)cc1 | -2.44% |
| COc1ccc(CSc2nnc(C)n2N)cc1[N+](=O)[O-] | -0.178% |
| Cc1occc1-c1nnc(SCC(=O)c2ccc(Cl)cc2)n1C | 3.21% |

| SMILES | hERG current change (%, negative = inhibition) at 1uM |
| --- | --- |
| CCn1c(C)nnc1SCC(=O)Nc1ccccc1OC | 15.1% |
| C=CCNC(=O)COC(=O)c1ccc(Sc2nncn2C)c([N+](=O)[O-])c1 | 9.83% |
| Cc1sc2ncn(CC(=O)NCc3ccccc3)c(=O)c2c1C | 10.7% |
| O=C(N/N=C/c1cccc(O)c1)C(=O)N1CCCCCC1 | 10.4% |
| Cc1ccn2c(C(=O)CSc3ccc(Cl)cc3Cl)c(C)nc2c1 | 18.3% |
| CSc1sccc1/C=N/NC(=O)c1ccncc1 | 10.2% |
| O=C(CCC(=O)Nc1nnc(C2CCCCC2)s1)NCc1cccs1 | 12.7% |
| CN(C(=O)COC(=O)CCC1CCCCC1)c1c(N)n(Cc2ccccc2)c(=O)[nH]c1=O | 15.6% |
| CCOC(=O)C1(Cc2ccccc2C)CCCN(C(=O)c2cc(CC)nn2C)C1 (stereo not shown) | 5.67% |
| O=[N+]([O-])c1ccc(NC(=S)NCCc2ccc(F)cc2)cc1 | 1.03% |
| CSc1nc(C)nc(N/C=C(\C#N)S(=O)(=O)c2ccccc2Cl)n1 | 6.24% |
| Cc1cc(-c2nn3c(-c4ccccc4)nnc3s2)c2ccccc2n1 | 6.78% |
| Cc1cc(C)n(CCCNC(=O)CCNS(=O)(=O)c2ccccc2C(F)(F)F)n1 | 9.68% |
| COC(=O)c1c(C(=O)OC)n(CCCN)c2ccc(C)cc12.Cl | -5.36% |
| COC(=O)c1ccc(Nc2cc(C)nc3ccc(C)cc23)cc1.Cl | -9.09% |
| CCc1nnc(NC(=O)CSc2nc3c([nH]c4ccccc43)c(=O)n2CCOC)s1 | 4.47% |
| O=C1C=C(Nc2ccccc2O)c2ccccc2C1=O | -5.19% |
| Cc1cc(C)n(Cc2ccccc2F)c(=O)c1C#N | 10.6% |
| CCC(C)C(=O)Nc1nc2c(s1)C(=O)CC(C)(C)C2 (stereo not shown) | 5.59% |
| Cc1cc(F)ccc1NS(=O)(=O)c1c(C)nc2scc(C)n2c1=O | -7.24% |
| C[C@@]12C(=O)N(Cc3ccccc3)CC(=O)N1[C@H]1c3ccccc3OC[C@@H]1[C@@H]2c1ccccc1 | 13.5% |
| Cc1ccc(S(=O)(=O)NNC(=O)Nc2cccc(C)c2C)c(C)c1 | 9.75% |
